Some of the results follow.
system: HepG2; experiment: cytotoxicity call (relative viability < 0.9); conditions: 10 µM

Row | Compound | cytotoxicity call
1 | CC(C)N(CCOc1c(Br)cc(/C=C/C(=O)NCCCOc2c(Br)cc(CCN(C)C)cc2Br)cc1Br)C(C)C | active
2 | C[C@H]1CCCCO[C@@H](CN(C)S(=O)(=O)c2ccc(F)cc2)[C@@H](C)CN([C@@H](C)CO)C(=O)c2cc(NS(=O)(=O)c3ccc(Cl)cc3)ccc2O1 | inactive
3 | Cc1ccc(S(=O)(=O)Nc2ccc3c(c2)C(=O)N([C@@H](C)CO)C[C@H](C)[C@@H](CN(C)S(=O)(=O)c2ccc(C)cc2)OCCCC[C@@H](C)O3)cc1 | inactive
4 | Clc1ccc(-c2csc(-c3ccc4c(c3)CCO4)n2)s1 | inactive
5 | Cc1cc(C2(c3cc(C)c(N)c(C)c3)CCCCC2)cc(C)c1N | active
6 | CO[C@@H]1CN(C)C(=O)c2cc(NC(=O)C3CC3)ccc2OC[C@@H](C)N(C(=O)C2CCOCC2)C[C@H]1C | inactive
7 | COCCCOc1cc(C[C@@H](C[C@H](N)[C@@H](O)C[C@H](C(=O)NCC(C)(C)C(N)=O)C(C)C)C(C)C)ccc1OC | inactive
8 | COc1ccc(S(=O)(=O)N(C)C[C@@H]2Oc3c(NS(=O)(=O)c4ccc(F)cc4)cccc3C(=O)N([C@@H](C)CO)C[C@@H]2C)cc1 | inactive
9 | C[C@H](CO)N1C[C@H](C)[C@H](CN(C)C(=O)c2ccccc2)OCCCC[C@H](C)Oc2ccc(NC(=O)Nc3ccc4c(c3)OCO4)cc2C1=O | inactive
10 | C[C@H](CO)N1C[C@H](C)[C@@H](CN(C)S(=O)(=O)c2ccccc2)Oc2ccc(NS(C)(=O)=O)cc2C1=O | inactive
11 | C[C@@H]1CN([C@H](C)CO)C(=O)Cc2cc(NC(=O)CCCN(C)C)ccc2O[C@H]1CN(C)C(=O)Nc1ccc2c(c1)OCO2 | inactive
12 | C[C@@H]1CN([C@@H](C)CO)C(=O)CCCn2cc(nn2)CO[C@H]1CN(C)C(=O)c1cc(-c2ccccc2)on1 | inactive
13 | C[C@H](CO)N1C[C@H](C)[C@@H](CN(C)C(=O)Nc2ccc3c(c2)OCO3)Oc2ccc(NC(=O)c3ccncc3)cc2C1=O | inactive
14 | CCc1nc2ccc(C(=O)N3CCN(S(=O)(=O)CC)CC3)cn2c1N(C)Cc1ccc(Cl)cc1 | inactive
15 | C[C@H](CO)N1C[C@H](C)[C@@H](CN(C)Cc2ccccc2)Oc2ccc(NC(=O)Cn3cnnn3)cc2CC1=O | inactive
16 | C[C@@H]1CN([C@@H](C)CO)C(=O)c2cc(C#CC3(O)CCCC3)cnc2O[C@@H]1CN(C)C(=O)Nc1ccc2c(c1)OCO2 | inactive
17 | Cc1ccccc1S(=O)(=O)N1C[C@@H](O)COC[C@@H]2O[C@@H](CC(=O)NCCc3ccccc3)CC[C@H]21 | inactive
18 | C[C@H]1CN([C@@H](C)CO)S(=O)(=O)c2ccc(C#CCN(C)C)cc2O[C@@H]1CN(C)Cc1cccnc1 | inactive
19 | COCC#Cc1ccc([C@H]2[C@@H](CO)N3C(=O)CN(C(=O)c4ccncc4)C[C@@H]23)cc1 | inactive
20 | NC(C(=O)NC1C(=O)N2C(C(=O)O)=C(Cl)CSC12)c1ccccc1 (stereo not given) | inactive

Row | Compound | cytotoxicity call
21 | Cn1cc(C(=O)NCc2cn3c(n2)CNCC3)cn1 | inactive
22 | COCC(=O)N(C)C[C@H]1Oc2cc(-c3ccc(OC)cc3)ccc2S(=O)(=O)N([C@H](C)CO)C[C@H]1C | inactive
23 | C[C@@H]1CN([C@@H](C)CO)C(=O)c2cc(NC(=O)C3CCCCC3)ccc2O[C@@H]1CN(C)S(=O)(=O)c1cn(C)cn1 | inactive
24 | COCC(=O)N1C[C@]2(C1)CN([C@H](CO)c1c2c2ccc(cc2n1C)OC)C(=O)CN1CCOCC1 | inactive
25 | Nc1nc(=O)n([C@H]2C[C@H](O)[C@@H](CO)O2)cc1O | inactive
26 | NCc1ccc(S(N)(=O)=O)cc1 | inactive
27 | COCC#Cc1cnc2c(c1)C(=O)N([C@H](C)CO)C[C@@H](C)[C@H](CN(C)C(=O)Nc1cc(F)ccc1F)O2 | inactive
28 | C[C@@H]1CCCCO[C@H](CN(C)C(=O)C2CCCCC2)[C@H](C)CN([C@H](C)CO)C(=O)c2cc(NS(=O)(=O)c3ccc(Cl)cc3)ccc2O1 | inactive
29 | C[C@@H]1CN([C@H](C)CO)C(=O)c2cc(NC(=O)C3CCCCC3)ccc2O[C@@H](C)CCCCO[C@H]1CN(C)C(=O)NC1CCCCC1 | inactive
30 | C[C@H](CO)N1C[C@H](C)[C@@H](CN(C)Cc2ccc(-c3ccccc3)cc2)Oc2ccc(NC(=O)Nc3ccccc3)cc2CC1=O | active
31 | C=C1C[C@@]23CC[C@@H]4[C@@](C)(CCC[C@@]4(C)C(=O)OC)[C@H]2CC[C@@H]1C3 | inactive
32 | Cn1cnc(S(=O)(=O)N2C[C@H](O)COC[C@H]3O[C@@H](CC(=O)NC4CCC4)CC[C@@H]32)c1 | inactive
33 | C[C@H](CO)N1C[C@H](C)[C@H](CN(C)S(=O)(=O)c2cn(C)cn2)Oc2cc(C#Cc3ccc(F)cc3)ccc2S1(=O)=O | inactive
34 | C[C@H](CO)N1C[C@H](C)[C@@H](CN(C)Cc2ccc(-c3ccccc3)cc2)Oc2ccc(NC(=O)Nc3ccc(F)cc3)cc2C1=O | inactive
35 | C[C@H](CO)N1C[C@H](C)[C@H](CN(C)Cc2ccc(C(F)(F)F)cc2)Oc2ccc(NC(=O)Nc3cccc4ccccc34)cc2CC1=O | inactive
36 | N[C@H]1CCN(c2nc3c(cc2F)c(=O)c(C(=O)O)cn3-c2ccc(F)cc2F)C1 | inactive
37 | CC(C)NC(=O)Nc1ccc2c(c1)C(=O)N([C@@H](C)CO)C[C@H](C)[C@@H](CN(C)C(=O)C1CCCCC1)OCCCC[C@H](C)O2 | inactive
38 | CC1=CCc2c(cc3oc(C)cc(=O)c3c2O)OC1 | inactive
39 | C[C@H]1CN([C@@H](C)CO)S(=O)(=O)c2ccc(C#CC(C)(C)O)cc2O[C@@H]1CN(C)Cc1ccccc1 | inactive
40 | C[C@H](CO)N1C[C@H](C)[C@H](CN(C)C(=O)Nc2ccc(F)cc2)Oc2ncc(-c3cc4ccccc4o3)cc2C1=O | inactive
